# Results published in PubChem BioAssay AID1030 (National Center for Advancing Translational Sciences (NCATS), 2008).
# In all, about 220,000 compounds went through this assay and about 16,000 (7.3%) were called active. The shares of active, inactive and inconclusive entries below differ from those in the screen. The call rests on the fitted dose curve; in most records, active means well fitted inhibition curve with a large enough effect (not every such curve was filed as active); inconclusive means small, poorly fitted or top-dose-only effect, or another doubt; inactive means no such curve, though single readings can be large or run the other way. No potency is given beside an inconclusive call; the fits are too rough.
# Molecular target: Aldehyde dehydrogenase 1A1 (Homo sapiens) (UniProt P00352)
# Chain of UniProt P00352 (P00352 whole entry, looked up): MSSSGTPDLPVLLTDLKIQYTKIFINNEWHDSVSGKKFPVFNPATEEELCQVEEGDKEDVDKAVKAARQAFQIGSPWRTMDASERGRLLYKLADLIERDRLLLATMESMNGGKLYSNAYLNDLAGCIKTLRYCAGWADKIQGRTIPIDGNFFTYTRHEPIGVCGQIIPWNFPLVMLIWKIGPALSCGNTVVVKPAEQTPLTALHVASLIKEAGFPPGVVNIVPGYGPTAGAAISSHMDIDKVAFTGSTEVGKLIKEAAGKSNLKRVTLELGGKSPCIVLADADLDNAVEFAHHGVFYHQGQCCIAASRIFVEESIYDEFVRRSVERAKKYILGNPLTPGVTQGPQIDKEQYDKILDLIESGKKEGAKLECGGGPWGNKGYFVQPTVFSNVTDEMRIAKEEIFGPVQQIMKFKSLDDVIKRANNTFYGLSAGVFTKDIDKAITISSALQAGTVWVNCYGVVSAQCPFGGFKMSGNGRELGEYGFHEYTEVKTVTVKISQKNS
# Assay: qHTS Assay for Inhibitors of Aldehyde Dehydrogenase 1 (ALDH1A1);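 on activity, negative = inhibition: plate controls were no enzyme wells and a reference inhibitor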
# Conditions: Purified ALDH1A1, NADH fluorescence, propionaldehyde substrate; series mostly up to 75.3 µM
# Potency means the concentration at half of the fitted maximal effect; tags describe the fitted curve by direction and shape.
Compound,Potency,"activity, negative = inhibition"
CCC(=O)Nc1sc2c(c1C#N)CCCCC2,"inconclusive [inhibitor, single point]",–
CCOC(=O)c1oc2c(CN3CCN(CCO)CC3)c(O)c(CC)cc2c(=O)c1-c1nc2ccccc2s1,active: 28.2 µM,–
CCOC(=O)/C(C#N)=C/c1ccc(N2CCCCC2)cc1,"inconclusive [inhibitor, single point]",–
NC(=O)c1sc(-c2ccsc2)cc1N,"inconclusive [inhibitor, single point]",–
COc1ccc2ccccc2c1C1CC(=O)N2CN(C)CSC2=C1C#N (stereo unspecified),active: 8.91 µM,–
Cc1ccc(S(=O)(=O)N2CCC(=O)N(CCOC(=O)Nc3ccccc3C)CC2)cc1,inactive,–
O=C(CCN1CCc2ccccc2C(c2ccccc2)C1)c1ccc2c(c1)OCCO2 (stereo unspecified),active: 0.141 µM,–
O=C(Nc1cccc(Cl)c1)Nc1nc(-c2ccccc2)cs1,inactive,–
Cc1nc(NCc2ccccc2)c2nc(-c3ccccc3)n(C3CCN(Cc4ccccc4)C3)c2n1 (stereo unspecified),"inconclusive [inhibitor, single point]",–
O=C(CSc1ncnc2nc[nH]c12)c1ccc2ccccc2c1,"inconclusive [inhibitor, single point]",–
CN1C(=O)/C(=C2\SC(N)=NC2=O)c2ccccc21,"inconclusive [inhibitor, single point]",–
CC(C)C(=O)N1c2ccccc2NC2=C(C(=O)CCC2)C1c1ccc(N(C)C)cc1 (stereo unspecified),"inconclusive [inhibitor, partial curve]",–
Cc1ccnc2nc(C(=O)NCc3cccs3)nn12,inactive,–
Cc1cccc(CN2CCN(CC(=O)O)C2=O)c1,"inconclusive [inhibitor, single point]",–
COc1ccc2nc(SCC(=O)Nc3ccc(S(=O)(=O)N4CCCC4)cc3)c(C#N)cc2c1,"inconclusive [inhibitor, partial curve]",–
CC1CC(C)CN(C(=O)c2ccc(N3CC4CC(C3)c3cccc(=O)n3C4)c([N+](=O)[O-])c2)C1 (stereo unspecified),"inconclusive [inhibitor, partial curve]",–
Cc1cccc(C2NC(=O)c3c(sc(C)c3C)N2)c1O (stereo unspecified),"inconclusive [inhibitor, single point]",–
CCC1CCC2(CC1)NNC(=S)NN2,active: 7.51 µM,–
CC(C)CN(C(=O)c1cc2ccccc2o1)c1c(N)n(CC(C)C)c(=O)[nH]c1=O,inactive,–
COc1ccc(-n2c(C)cc(-c3csc(N)n3)c2C)cc1,active: 25.1 µM,–
CC(Sc1nnc2ccccn12)C(N)=O (stereo unspecified),inactive,–
CCOc1ccccc1NC(=O)C1CCN(C(=O)Cc2ccccc2)CC1,inactive,–
Cc1cc(C)nc(SCc2ccc(C(=O)N/N=C/c3ccco3)cc2)n1,inactive,–
Cn1cc(/C=N/n2cnc3scc(-c4ccccc4)c3c2=O)c2ccccc21,"inconclusive [inhibitor, single point]",–
CCCCc1n[nH]c2c1C(=O)CC(C)(C)C2,"inconclusive [inhibitor, partial curve]",–
O=C(c1cc(-c2cccs2)on1)N1CCCCC1,"inconclusive [inhibitor, single point]",–

Compound,Potency,"activity, negative = inhibition"
CCCCCc1ccc(S(=O)(=O)NCCc2ccncc2)cc1,inactive,–
CCOc1cc(/C=C2\N=C3CCCCCN3C2=O)ccc1O,"inconclusive [inhibitor, partial curve]",–
COc1ccccc1OCc1ccc(C(=O)N2CCN(C(=O)c3ccco3)CC2)cc1,"inconclusive [inhibitor, single point]",–
COc1ccc(C(=O)/C=C/Nc2ccc([N+](=O)[O-])cc2C)cc1OC,"inconclusive [inhibitor, single point]",–
CCN(CC)c1ccc(C=Nc2ccccc2C)c(O)c1,inactive,–
CCOC(=O)c1ccc2c(c1)sc(=NC(=O)c1ccco1)n2CCOC,"inconclusive [inhibitor, single point]",–
O=c1cc(O)c2sc(Nc3ccc(F)cc3)nc2[nH]1,"inconclusive [inhibitor, single point]",–
CCOc1ccc(NC(C)c2cc(Cl)ccc2O)cc1 (stereo unspecified),"inconclusive [inhibitor, single point]",–
Oc1cccc(C(=S)N2CCCCC2)c1,active: 11.2 µM,–
CC1CCC2C(=O)N(c3ccc(NC4CCN(Cc5ccccc5)CC4)c([N+](=O)[O-])c3)C(=O)C2C1 (stereo unspecified),"inconclusive [inhibitor, single point]",–
COC(=O)c1sccc1NC(=S)N1CCCCC1C (stereo unspecified),"inconclusive [inhibitor, partial curve]",–
C=CCN(CC=C)C(=O)C1CCC(C(=O)N(CC=C)CC=C)CC1 (stereo unspecified),inactive,–
COc1ccc(-c2cc(C(=O)Nc3ccccc3)on2)cc1,inactive,–
CC(=O)Nc1ccc(C(=O)CSc2ncn(-c3ccccc3)n2)cc1,"inconclusive [inhibitor, partial curve]",–
CN=C(Nc1cccc(Cl)c1)SC1CC(=O)N(c2ccc(OC)cc2)C1=O (stereo unspecified),"inconclusive [inhibitor, single point]",–
CCN(CC)S(=O)(=O)c1cccc(-c2nnc(SCC#N)n2Cc2ccccc2)c1,active: 10 µM,–
Cc1ccc(SCC(=O)c2cc(C)c(OC(=S)N(C)C)c(C)c2)cc1,"inconclusive [inhibitor, single point]",–
COc1ccc(NC(=O)CSc2nnc(Cc3cccn3C)n2CCc2ccccc2)c(OC)c1,"inconclusive [inhibitor, partial curve]",–
Cc1ccc(S(=O)(=O)NC(N)=NCCc2ccccc2)cc1C,"inconclusive [inhibitor, single point]",–
Cc1cc(C(=O)NCc2cccnc2)no1,inactive,–
Cc1cccc(Oc2c([N+](=O)[O-])c(=O)n(C)c3ccccc23)c1,active: 3.16 µM,–
Clc1ccccc1-c1ccc(/C=N/n2cnnc2)o1,inactive,–
Cc1ccccc1CSCCNC(=S)Nc1ccccc1,inactive,–
CC(C)CNc1c(N)n(CC(C)C)c(=O)[nH]c1=O,"inconclusive [inhibitor, partial curve]",–
CCn1nc(NC(=O)c2ccco2)c2cc3ccccc3nc21,"inconclusive [inhibitor, partial curve]",–
CCOc1cccc(C(=O)NC(=S)Nc2ccc(N3CCN(CC)CC3)cc2)c1,"inconclusive [inhibitor, single point]",–

Compound,Potency,"activity, negative = inhibition"
O=S(=O)(CCN1C=CC(C(F)(F)F)=NCC1)c1ccc(F)cc1,"inconclusive [inhibitor, single point]",–
Oc1cccc2ccc(SSc3ccc4cccc(O)c4n3)nc12,active: 3.98 µM,–
C/C(=N\NC(=S)NC1CCCCC1)c1ccc(O)cc1,active: 14.1 µM,–
O=c1[nH]c(-c2ccccn2)nc2sc(-c3ccccc3)cc12,"inconclusive [inhibitor, partial curve]",–
Cn1c(=O)[nH]c(=O)c2c1nc(N1CCCCC1)n2CCCSc1nnnn1-c1ccccc1,active: 7.94 µM,–
CC(=O)Nc1sc(N/N=C\c2ccco2)nc1-c1cccs1,active: 17.8 µM,–
Cc1ccc(S(=O)(=O)CCC(=O)NCc2ccco2)cc1,"inconclusive [inhibitor, single point]",–
CC(C)(C)c1ccc(Oc2cccc(C3CC(=O)C(C4NCCc5ccccc54)C(=O)C3n3cncn3)c2)cc1 (stereo unspecified),"inconclusive [inhibitor, single point]",–
CCOc1ccc(CCNC(=O)C2CCN(S(=O)(=O)N3CCC(C)CC3)CC2)cc1OCC,"inconclusive [inhibitor, single point]",–
Cc1cccc(NC(=O)CSc2nc3c([nH]c4ccccc43)c(=O)n2C)c1,"inconclusive [inhibitor, single point]",–
CCCCOc1ccc(C(=S)N2CCC(C(N)=O)CC2)cc1,"inconclusive [inhibitor, single point]",–
CC(C)CC(=O)NC(NC(=S)Nc1ccccc1)C(Cl)(Cl)Cl (stereo unspecified),inactive,–
CC1Cc2ccccc2N1C(=O)CN1C(=O)C(=O)N(Cc2ccccc2)C1=O (stereo unspecified),active: 31.6 µM,–
N#C/C(=C/c1ccc(N2CCOCC2)o1)C(=O)Nc1ccccc1,active: 22.4 µM,–
c1ccc(Nc2ccc(-n3ccnc3)nn2)cc1,inactive,–
CC1=CC(C)(C)N(C(=O)CSc2nnc(N)s2)c2cc(C)c(C)cc21,"inconclusive [inhibitor, single point]",–
O=C(c1cc(-c2ccc(F)cc2)on1)N1CCCc2ccccc21,"inconclusive [inhibitor, partial curve]",–
C=CCOCCN1C(=O)C2C3C=CC(C2C1=O)C1C2C(=O)N(CCOCC=C)C(=O)C2C31 (stereo unspecified),active: 14.1 µM,–
Cc1ccc(NC(=S)NNc2ncc(C(F)(F)F)cc2Cl)c(C)c1,"inconclusive [inhibitor, partial curve]",–
COC(=O)NC(c1cccc(C)c1)[C@]1(C(C)=O)CCCC1=O (stereo partly specified),–,inactive: 0.557% [at 13.5 µM]
COc1ccccc1CNC(=O)Cn1cccc1,inactive,–
COc1cc(/C=N/NC(=O)CN2CCCCC2)ccc1OCc1ccc(Br)cc1,inactive,–
Cc1cccc(NC(=S)N/N=C2/CCCCc3ccccc32)c1,"inconclusive [inhibitor, single point]",–
CCCn1c(-c2ccc(F)cc2)nc2c(NCCCN3CCCCC3C)nc(C)nc21 (stereo unspecified),"inconclusive [inhibitor, single point]",–
